Test results as given in the RNAGym collection of RNA variant scans (doi:10.7554/elife.90254).
The source gives no read counts; variants with many changes may rest on few reads.

B1: LINE1-mini (parent)
chain: GGCAGAGCUCAACACAGCGUGGCAAAGUGGCUGUGGCUAGACUGCC

Variants of: B1
Assay: self-cleavage, relative activity (ratio to wild type); higher = more cleavage; in vitro, sequencing; the parent is a self-cleaving ribozyme

Variant	self-cleavage
GGCAGAGCUUAACACAGCGUGCCAAAGUUGCUGUGUCUAGACUGCC [C10U G22C G29U G36U]	0.02
GGCAGAGCUUAACACAGCGUGCCAAAGUGACUGUGGCUAGACUGCC [C10U G22C G30A]	0.37
GGCAGAGCUUAACACAGCGUGCCAAAGUGGCAGUGGCUAGACUGCC [C10U G22C U32A]	0.01
GGCAGAGCUUAACACAGCGUGUCAAAGUGGCUGUCGCAAUACUGCC [C10U G22U G35C U38A G40U]	0.02
GGCAGAGCUUAACACAGCGUGUCAAAGUGGCUGCGCCUAGCCUGCC [C10U G22U U34C G36C A41C]	0.01
GGCAGAGCUUAACACAGCGUGGCAAAAUGGCUGUGGGUAGACUACC [C10U G27A C37G G44A]	0.01
GGCAGAGCUUAACACAGCGUGGCAAAUUGGCUGUGGAUAUAUUGCC [C10U G27U C37A G40U C42U]	0.05
GGCAGAGCUUAACACAGCGUGGCAAAUUAGCUGUGGCUAGACUGCC [C10U G27U G29A]	0.33
GGCAGAGCUUAACACAGCGUGGCAAAGUUGCUGUGGCUGGACUGCC [C10U G29U A39G]	0.12
GGCAGAGCUUAACACAGCGUGGCAAAGUUGCUGUGGCUAAACUUCC [C10U G29U G40A G44U]	0.02
GGCAGAGCUUAACACAGCGUGGCAAAGUGGCUGUUGCUCGACUGCC [C10U G35U A39C]	0.03
GGCAGAGCUUAACACAGCGUGGCAAAGUGGCUGUGGCUAUACGGCC [C10U G40U U43G]	0.02
GGCAGAGCUUAACACAGCGAGGCAAAGUGCAUGUGGCUAGACUGCC [C10U U20A G30C C31A]	0.14
GGCAGAGCUUAACACAGCGAGGCAAAGUGGCUGUGGCUAGACUACC [C10U U20A G44A]	0.03
GGCAGAGCUUAACACAGCGCGGCAAAGUGGCUGCGCCUAGACUUCC [C10U U20C U34C G36C G44U]	0.02
GGCAGAGCUUAACACAGCGGGGCAAAGUGGCUGUGGCUCGACUGCC [C10U U20G A39C]	0.2
GGCAGAGCUUAACACAGCGGUGCAAAGAGGCUGUGGCUAGACUGCC [C10U U20G G21U U28A]	0.15
GGCAGAGCUUAACACAGCGGGGCAAAGUGUCUGUGGCUAGACUGCC [C10U U20G G30U]	0.28
GGCAGAGCUUAACACAGCGGGGCAAAGUGGCUGUUGCUAGACUGUC [C10U U20G G35U C45U]	0.03

Variant	self-cleavage
GGCAGAGCUUAACACAGCGUGGCAAAGGGGCUGUGGGUUGACUGCC [C10U U28G C37G A39U]	0.02
GGCAGAGCUUAACACAGCGUGGCAAAGUGGCUGAGGCUAGACUCCC [C10U U34A G44C]	0.02
GGCAGAGCUUAACACAGCGUGGCAAAGUGGCUGCGGCUAUACUUCC [C10U U34C G40U G44U]	0.04
GGCAGAGCUCCCCACUGCGUGGCAAAGUGGCUGUGGCUAGACUGCC [A11C A12C A16U]	0.02
GGCAGAGCUCCCCACAGCGUCGCAAAGUUUCUGUGCCUAGACCGCC [A11C A12C G21C G29U G30U G36C U43C]	0
GGCAGAGCUCCGCACAGCGUGGCGAACUGGCUGUGGCUAGACUGAC [A11C A12G A24G G27C C45A]	0.02
GGCAGAGCUCCUCAAAGCGUGGCAUAGUUGCUGUGGCUAGACUGCC [A11C A12U C15A A25U G29U]	0
GGCAGAGCUCCUCAUAGCGUGGCAAAGUGUCUAUGGCUAGACUGUC [A11C A12U C15U G30U G33A C45U]	0.01
GGCAGAGCUCCUCAUAGCGAUGCAAAGUGGGUGUGGCUAGACUGCA [A11C A12U C15U U20A G21U C31G C46A]	0.01
GGCAGAGCUCCUCACAGCGUGGCAAAGUGGCUGUGGGUAGCCUGCC [A11C A12U C37G A41C]	0.01
GGCAGAGCUCCUCACAGCGUGGCAAAGUGGCUGUGGCUAGACUUCC [A11C A12U G44U]	0.01
GGCAGAGCUCCACCCAGCGUGGCAAUGUGGCUGUGGUUAGACUGCC [A11C A14C A26U C37U]	0.02
GGCAGAGCUCCACCCAGCGUGGCAAAGUGGCUGGGGCUAGACUGCC [A11C A14C U34G]	0.02
GGCAGAGCUCCACCCAGCGUGGCAAAGUGGCUGUGGCCAGACUGCC [A11C A14C U38C]	0
GGCAGAGCUCCACGCAGCGUGGCAAAGUGGCUGUGGCUAGCCUGCC [A11C A14G A41C]	0
GGCAGAGCUCCACGGUGAGUGGCAAAGUGUCUGUGGCUAGACUGCC [A11C A14G C15G A16U C18A G30U]	0.01
GGCAGAGCUCCACGCAGGGUGACAAAGUAUCUGUGGCUAGAAAGCC [A11C A14G C18G G22A G29A G30U C42A U43A]	0.02
GGCAGAGCUCCACUCAGCGUGGCAAAGUGGCUGUUGCUAGACUGCA [A11C A14U G35U C46A]	0.01
GGCAGAGCUCCACACGGCGUGGCACAGUGGCUGUGGCUAGCCUGCC [A11C A16G A25C A41C]	0.01

Variant	self-cleavage
GGCAGAGCUCCACACGACGUCACAAAGUGGCUGUGGCUAGACUGCC [A11C A16G G17A G21C G22A]	0.01
GGCAGAGCUCCACACUGCGUGGCCAAGUGGCUGAGGCUAGACUGCA [A11C A16U A24C U34A C46A]	0
GGCAGAGCUCCACACAGCGUGGCCAGCUGGCUGUGGGUAUACUGCC [A11C A24C A26G G27C C37G G40U]	0
GGCAGAGCUCCACACAGCGUGGCCAAGUGGCUUUGGCUAGACUGCC [A11C A24C G33U]	0.01
GGCAGAGCUCCACACAGCGUGGCAGAGUGGCUGGGGCUAGACUGCC [A11C A25G U34G]	0.01
GGCAGAGCUCCACACAGCGUGGCAUAGUGGCUUUGGCUAGCCUGCG [A11C A25U G33U A41C C46G]	0.01
GGCAGAGCUCCACACAGCGUGGCAUAGUGGCUGUGGCUACACUGCC [A11C A25U G40C]	0.04
GGCAGAGCUCCACACAGCGUGGCAACGUGGAUGUGGCUAGACUGCC [A11C A26C C31A]	0
GGCAGAGCUCCACACAGCGUGGCAAGGUGGCUGUGGCUAGAUUGCC [A11C A26G C42U]	0.01
GGCAGAGCUCCACACAGCGUGGCAAGGUGGCUGUGGCUAGACUGAC [A11C A26G C45A]	0
GGCAGAGCUCCACACAGCGUGGCAAGGUGGCUGUGGCUAGACUGUC [A11C A26G C45U]	0.06
GGCAGAGCUCCACACAGCGUGGCAAGGUGCCUGUGGCUAGACUGCA [A11C A26G G30C C46A]	0
GGCAGAGCUCCACACAGCGUGGCAAGGAGGCUAUGGCUAGACUGCC [A11C A26G U28A G33A]	0.01
GGCAGAGCUCCACACAGCGUGGCAAUGUGGCUGUGGCUAGACUGGC [A11C A26U C45G]	0.01
GGCAGAGCUCCACACAGCGUGGCAAAGUGGCUGUGGCUCGACUCCC [A11C A39C G44C]	0
GGCAGAGCUCCAAACAGCGUGGCAGGGUGGCUAUGGCUAGACUGCC [A11C C13A A25G A26G G33A]	0.03
GGCAGAGCUCCAAACAGCGUGGAAAAGUGGCUGUGCGUGGACUGCC [A11C C13A C23A G36C C37G A39G]	0
GGCAGAGCUCCAAACAGCGUGGCAAAAUGGCUGUGGCUAGACUGCC [A11C C13A G27A]	0.02
